Measured values taken from the supplement of paper PMC10037445.
Over roughly 2,900 compounds, “NF-kB SEAP reporter activity, fold change vs agonist alone” has its median near 0.99; the highest 2% begin near 2.6. This is one part of the list.

Assays:
RAW-Dual [1] = experiment: NF-kB SEAP reporter activity, fold change vs agonist alone; cytotoxicity flag (confluency mask): not cytotoxic; higher = enhanced NF-kB activity
Procedure, shortened: (§1)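 Reporter activity is given as fold change relative to agonist-alone wells. To measure it, 50 nL of library stock was pin-tooled onto RAW-Dual macrophages (50,000 cells/well, DMEM, 384-well plates), a PRR agonist followed 1 h later, and cells stayed at 37 °C, 5% CO2. Twenty hours on, supernatant was assayed for IRF (QuantiLuc luminescence) and NF-κB (QuantiBlue, 620 nm absorbance), and wells under 70% of agonist-control IncuCyte confluency in both mask sets were marked cytotoxic.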

RAW-Dual [2] = experiment: NF-kB SEAP reporter activity, fold change vs agonist alone; higher = enhanced NF-kB activity
Procedure, shortened: as §1

RAW-Dual [3] = experiment: NF-kB SEAP reporter activity, fold change vs agonist alone; cytotoxicity flag (confluency mask): cytotoxic (confluency <70% of control); higher = enhanced NF-kB activity
Procedure, shortened: as §1

[4] = agonist: ODN 1826 (TLR9) 0.5 ug/mL
[5] = agonist: Pam2CSK4 (TLR2/6) 0.1 ug/mL
[6] = agonist: Pam3CSK4 (TLR2/1) 0.1 ug/mL
[7] = library stock concentration (final ~1000-fold dilution): 10 mM, cytotoxicity flag (confluency mask): not cytotoxic, agonist: Imiquimod (TLR7) […]
[8] = library stock concentration (final ~1000-fold dilution): 10 mM, cytotoxicity flag (confluency mask): not cytotoxic, agonist: MPLA (TLR4) […]

CS(=O)(=O)N1CCc2c(-c3cnc(N)nc3)nc(N3CCOCC3)nc21 (library stock concentration (final ~1000-fold dilution): 10 mM)
NF-kB SEAP reporter activity (RAW-Dual [1]; agonist: LPS (TLR4) 0.1 ug/mL): 1.63 | NF-kB SEAP reporter activity (RAW-Dual [1]; [4]): 1.13 | NF-kB SEAP reporter activity (RAW-Dual [1]; [5]): 0.743 | NF-kB SEAP reporter activity (RAW-Dual [1]; [6]): 0.693

O=c1oc2ccccc2c(O)c1Cc1c(O)c2ccccc2oc1=O
NF-kB SEAP reporter activity (RAW-Dual [2]; [7]): 0.905 | NF-kB SEAP reporter activity (RAW-Dual [2]; [8]): 0.991

O=c1oc2ccccc2c(O)c1Cc1c(O)c2ccccc2oc1=O (library stock concentration (final ~1000-fold dilution): 10 mM)
NF-kB SEAP reporter activity (RAW-Dual [1]; agonist: LPS (TLR4) 0.1 ug/mL): 1.15 | NF-kB SEAP reporter activity (RAW-Dual [1]; [4]): 0.94 | NF-kB SEAP reporter activity (RAW-Dual [1]; [5]): 1.09 | NF-kB SEAP reporter activity (RAW-Dual [1]; [6]): 0.893

CC1CNCCCN1S(=O)(=O)c1cccc2cncc(F)c12.Cl.O.O (stereo unspecified) (library stock concentration (final ~1000-fold dilution): 10 mM)
NF-kB SEAP reporter activity (RAW-Dual [1]; agonist: LPS (TLR4) 0.1 ug/mL): 1.11 | NF-kB SEAP reporter activity (RAW-Dual [1]; [4]): 0.99 | NF-kB SEAP reporter activity (RAW-Dual [1]; [5]): 1.27 | NF-kB SEAP reporter activity (RAW-Dual [1]; [6]): 1.5

CC1CNCCCN1S(=O)(=O)c1cccc2cncc(F)c12.Cl.O.O (stereo unspecified)
NF-kB SEAP reporter activity (RAW-Dual [2]; [7]): 1.01 | NF-kB SEAP reporter activity (RAW-Dual [2]; [8]): 1.08

Nc1nc(=S)c2[nH]cnc2[nH]1 (library stock concentration (final ~1000-fold dilution): 10 mM)
NF-kB SEAP reporter activity (RAW-Dual [1]; agonist: LPS (TLR4) 0.1 ug/mL): 0.344 | NF-kB SEAP reporter activity (RAW-Dual [1]; [4]): 0.37 | NF-kB SEAP reporter activity (RAW-Dual [1]; [5]): 0.287 | NF-kB SEAP reporter activity (RAW-Dual [1]; [6]): 0.369

Nc1nc(=S)c2[nH]cnc2[nH]1
NF-kB SEAP reporter activity (RAW-Dual [2]; [7]): 0.91 | NF-kB SEAP reporter activity (RAW-Dual [2]; [8]): 0.608

O=C1c2ccccc2C(=O)c2c1ccc(O)c2O (library stock concentration (final ~1000-fold dilution): 10 mM)
NF-kB SEAP reporter activity (RAW-Dual [1]; agonist: LPS (TLR4) 0.1 ug/mL): 1.16 | NF-kB SEAP reporter activity (RAW-Dual [1]; [4]): 1.02 | NF-kB SEAP reporter activity (RAW-Dual [1]; [5]): 1.18 | NF-kB SEAP reporter activity (RAW-Dual [1]; [6]): 1.17

O=C1c2ccccc2C(=O)c2c1ccc(O)c2O
NF-kB SEAP reporter activity (RAW-Dual [2]; [7]): 1.13 | NF-kB SEAP reporter activity (RAW-Dual [2]; [8]): 1.17

CC(/C=C1\SC(=S)N(CC(=O)O)C1=O)=C\c1ccccc1 (library stock concentration (final ~1000-fold dilution): 2 mM)
NF-kB SEAP reporter activity (RAW-Dual [1]; agonist: LPS (TLR4) 0.1 ug/mL): 1.41 | NF-kB SEAP reporter activity (RAW-Dual [1]; [4]): 1.03 | NF-kB SEAP reporter activity (RAW-Dual [1]; [5]): 1.11 | NF-kB SEAP reporter activity (RAW-Dual [1]; [6]): 1.01

CC(/C=C1\SC(=S)N(CC(=O)O)C1=O)=C\c1ccccc1
NF-kB SEAP reporter activity (RAW-Dual [2]; library stock concentration (final ~1000-fold dilution): 2 mM, cytotoxicity flag (confluency mask): not cytotoxic, agonist: Imiquimod (TLR7) […]): 0.994 | NF-kB SEAP reporter activity (RAW-Dual [2]; library stock concentration (final ~1000-fold dilution): 2 mM, cytotoxicity flag (confluency mask): not cytotoxic, agonist: MPLA (TLR4) […]): 1.08

COC(=O)[C@]12CCC(C)(C)C[C@H]1[C@H]1C(=O)C=C3[C@@]4(C)C=C(C#N)C(=O)C(C)(C)[C@@H]4CC[C@@]3(C)[C@]1(C)CC2
NF-kB SEAP reporter activity (RAW-Dual [2]; library stock concentration (final ~1000-fold dilution): 10 mM, cytotoxicity flag (confluency mask): cytotoxic (confluency <70% of control), agonist: Imiquimod (TLR7) […]): 0.137 | NF-kB SEAP reporter activity (RAW-Dual [2]; library stock concentration (final ~1000-fold dilution): 10 mM, cytotoxicity flag (confluency mask): cytotoxic (confluency <70% of control), agonist: MPLA (TLR4) […]): 0.267

COC(=O)[C@]12CCC(C)(C)C[C@H]1[C@H]1C(=O)C=C3[C@@]4(C)C=C(C#N)C(=O)C(C)(C)[C@@H]4CC[C@@]3(C)[C@]1(C)CC2 (library stock concentration (final ~1000-fold dilution): 10 mM)
NF-kB SEAP reporter activity (RAW-Dual [3]; agonist: LPS (TLR4) 0.1 ug/mL): 0.302 | NF-kB SEAP reporter activity (RAW-Dual [3]; [4]): 0.201 | NF-kB SEAP reporter activity (RAW-Dual [3]; [5]): 0.0748 | NF-kB SEAP reporter activity (RAW-Dual [3]; [6]): 0.173

CCCOc1ccn2c(C(C)=O)cc(-c3ccccc3S(C)(=O)=O)c2c1 (library stock concentration (final ~1000-fold dilution): 10 mM)
NF-kB SEAP reporter activity (RAW-Dual [1]; agonist: LPS (TLR4) 0.1 ug/mL): 1.3 | NF-kB SEAP reporter activity (RAW-Dual [1]; [4]): 1.19 | NF-kB SEAP reporter activity (RAW-Dual [1]; [5]): 1.06 | NF-kB SEAP reporter activity (RAW-Dual [1]; [6]): 1.37

CCCOc1ccn2c(C(C)=O)cc(-c3ccccc3S(C)(=O)=O)c2c1
NF-kB SEAP reporter activity (RAW-Dual [2]; [7]): 1.07 | NF-kB SEAP reporter activity (RAW-Dual [2]; [8]): 1.24

c1ccc(CNc2nc(NCc3ccccc3)c3ccccc3n2)cc1
NF-kB SEAP reporter activity (RAW-Dual [2]; [7]): 0.134 | NF-kB SEAP reporter activity (RAW-Dual [2]; [8]): 0.232

c1ccc(CNc2nc(NCc3ccccc3)c3ccccc3n2)cc1 (library stock concentration (final ~1000-fold dilution): 10 mM)
NF-kB SEAP reporter activity (RAW-Dual [1]; agonist: LPS (TLR4) 0.1 ug/mL): 0.213 | NF-kB SEAP reporter activity (RAW-Dual [1]; [4]): 0.184 | NF-kB SEAP reporter activity (RAW-Dual [1]; [5]): 0.0684 | NF-kB SEAP reporter activity (RAW-Dual [1]; [6]): 0.138

COC(=O)CCSCc1ccc(-c2onc(C)c2NC(=O)OC(C)c2ccccc2Cl)cc1 (stereo unspecified) (library stock concentration (final ~1000-fold dilution): 10 mM)
NF-kB SEAP reporter activity (RAW-Dual [1]; agonist: LPS (TLR4) 0.1 ug/mL): 1.23 | NF-kB SEAP reporter activity (RAW-Dual [1]; [4]): 1.33 | NF-kB SEAP reporter activity (RAW-Dual [1]; [5]): 1 | NF-kB SEAP reporter activity (RAW-Dual [1]; [6]): 1.24

COC(=O)CCSCc1ccc(-c2onc(C)c2NC(=O)OC(C)c2ccccc2Cl)cc1 (stereo unspecified)
NF-kB SEAP reporter activity (RAW-Dual [2]; [7]): 1.15 | NF-kB SEAP reporter activity (RAW-Dual [2]; [8]): 1.15

NCC1OC(OC2C(CO)OC(OC3C(O)C(N)CC(N)C3OC3OC(CO)C(O)C(O)C3N)C2O)C(N)C(O)C1O.O=S(=O)(O)O (stereo unspecified)
NF-kB SEAP reporter activity (RAW-Dual [2]; library stock concentration (final ~1000-fold dilution): 10 mM water, cytotoxicity flag (confluency mask): not cytotoxic, agonist: Imiquimod (TLR7) […]): 0.946 | NF-kB SEAP reporter activity (RAW-Dual [2]; library stock concentration (final ~1000-fold dilution): 10 mM water, cytotoxicity flag (confluency mask): not cytotoxic, agonist: MPLA (TLR4) […]): 1.03

NCC1OC(OC2C(CO)OC(OC3C(O)C(N)CC(N)C3OC3OC(CO)C(O)C(O)C3N)C2O)C(N)C(O)C1O.O=S(=O)(O)O (stereo unspecified) (library stock concentration (final ~1000-fold dilution): 10 mM water)
NF-kB SEAP reporter activity (RAW-Dual [1]; agonist: LPS (TLR4) 0.1 ug/mL): 1.05 | NF-kB SEAP reporter activity (RAW-Dual [1]; [4]): 1.24 | NF-kB SEAP reporter activity (RAW-Dual [1]; [5]): 1.27 | NF-kB SEAP reporter activity (RAW-Dual [1]; [6]): 1.03

O=C(NCCO)c1cccc(-c2cc(Nc3ccc(OC(F)(F)F)cc3)ncn2)c1 (library stock concentration (final ~1000-fold dilution): 10 mM)
NF-kB SEAP reporter activity (RAW-Dual [1]; agonist: LPS (TLR4) 0.1 ug/mL): 1.15 | NF-kB SEAP reporter activity (RAW-Dual [1]; [4]): 0.796 | NF-kB SEAP reporter activity (RAW-Dual [1]; [5]): 0.96 | NF-kB SEAP reporter activity (RAW-Dual [1]; [6]): 1.03

O=C(NCCO)c1cccc(-c2cc(Nc3ccc(OC(F)(F)F)cc3)ncn2)c1
NF-kB SEAP reporter activity (RAW-Dual [2]; [7]): 1.09 | NF-kB SEAP reporter activity (RAW-Dual [2]; [8]): 1.23

O=C(CS(=O)Cc1ccco1)NC/C=C\COc1cc(CN2CCCCC2)ccn1 (stereo unspecified)
NF-kB SEAP reporter activity (RAW-Dual [2]; [7]): 0.751 | NF-kB SEAP reporter activity (RAW-Dual [2]; [8]): 1.04

O=C(CS(=O)Cc1ccco1)NC/C=C\COc1cc(CN2CCCCC2)ccn1 (stereo unspecified) (library stock concentration (final ~1000-fold dilution): 10 mM)
NF-kB SEAP reporter activity (RAW-Dual [1]; agonist: LPS (TLR4) 0.1 ug/mL): 0.951 | NF-kB SEAP reporter activity (RAW-Dual [1]; [4]): 0.952 | NF-kB SEAP reporter activity (RAW-Dual [1]; [5]): 1.08 | NF-kB SEAP reporter activity (RAW-Dual [1]; [6]): 0.932
